The results in this text go back to the supplement of paper PMC11417369.

The list shows a part of the results.

The test system of this experiment is PfAP2-HC AP2 domain (GST-tagged). Kind of experiment: gcPBM binding intensity (ln(normalized median fluorescence intensity)); higher = stronger DNA binding. The gist of the method: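 GST-tagged P. falciparum DNA-binding domains produced in E. coli were incubated for 1 h on an Agilent 4 × 180k array of primer-extended double-stranded 36-bp intergenic genomic probes with negative controls. Binding intensity is the highest Masliner-normalised natural-log median intensity across replicate spots of either probe orientation, with bound protein detected by Alexa488 anti-GST antibody at 488 nm.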
In the case of AAGTACAATTCATGTATGCACTTTATTATATTTTAT, the “gcPBM binding intensity (ln)” value worked out at 9.74.
The result for “AAGATAAAATAATAAAGTACACATATAAATTGAAAA [XGTACX_site2113]” reads 9.73; that for “TTTCTTTTTAAATAATAATGTATAATAAAAAGTTCA [TGCATGCA_negctrl_site195]”, 9.15; that for “TTTGTTTGATATATGTGTACATATATATATTATGCT [XGTACX_site3522]”, 9.78.
The result for “TATTATAGTATATATTGTACATATATATATTTTTTA [XGTACX_site8831]” reads 9.69; that for “ATAATAATATATAGTACACACAAAAATGGAAGTAAA [CACACA_site3318]”, 10.2; that for “TGTTATGAGAACAGCACACAAGCTACATCATATATA [CACACA_site870]”, 9.74.
The result for “TATATATAAGATTGATGTACGATTTTGGTGTCTTAT [XGTACX_site2611]” reads 9.67; that for “AACATATGATTAAACTGTACAAGAAAAATATAACAT [XGTACX_site4477]”, 9.84; that for “GAGAGGATCATCAATTCACACACATAAAAATGAAGT [CACACA_site9010]”, 9.86.
Take “TAAAAATATTATAATGCATGCAAAATATTGTTATAA [TGCATGCA_site244]”: the “gcPBM binding intensity (ln)” value was determined as 9.63.
In the case of “ATAGTTTTTCCAATTCAAAAAAAAAAAAAAAAAAAA [CACACA_negctrl_site969]” it was 8.91; in that of “AAAGTATAAATAAATACACACATATTTATTTATATA [CACACA_site7375]”, 9.81.
The result for “TAATTTATCCTATAATGTACTTATAAAATATATCAT [XGTACX_site1460]” reads 9.57; that for “ATGTACATAAACCGCACACATATAAAAAAATAAATA [CACACA_site5571]”, 10.2; that for “ATTCAGAGTATATAAAAATTAATATATACATAATAT [CACACA_negctrl_site1782]”, 9.62.
In the case of “AGTCCATTTTATTATTGTACATATTAATTTATATCA [XGTACX_site672]” it was 9.86; in that of “TAGATATTTTTGAAAAGTACAAATTTTTAAAAATTA [XGTACX_site4420]”, 9.36.
With “TTATATAATGACAAAAAAAAAAAAAAAAAAAAAAAA [CACACA_negctrl_site1467]”, the “gcPBM binding intensity (ln)” value came out at 8.73.
The result for “GTATGATTACAAGAAAGTAGTCCACTTTAACAACAA [CACACA_negctrl_site1304]” reads 9.73; that for “ATATATATATAAATATGTACATATATACATATATAC [XGTACX_site2374]”, 9.7.
The result for “AATATTTTGTTATTTATTTAATCTAATATTACTATC [CACACA_negctrl_site4]” reads 9.69; that for “AAAAAAAAAAAATACACACAAACACAAATTAAATAA [CACACA_site3809]”, 10.3; that for “ATTATAGAATATTGAAGTACAAAATTTAAAATAAGT [XGTACX_site1468]”, 9.73.
Take “TAGGAAAATTACAAAAGTACTTGGCACATAATAATG [XGTACX_site6005]”: the “gcPBM binding intensity (ln)” value was determined as 9.62.
Turning to “TATATATATATATATGCACACATTTATACAATTTTA [CACACA_site2986]”, the “gcPBM binding intensity (ln)” value worked out at 9.51.
Consider “ATCATATCCACCAAATGAATAATATAAAATAATATA [XGTACX_negctrl_site193]”, for which the “gcPBM binding intensity (ln)” value was found to be 9.53.
The result for “AAATAACATAATAAGGGTACATTAATTTCGATAATG [XGTACX_site835]” reads 9.83; that for “TATTTTGTCATAGAACGTACTTATAAATATTTTTTT [XGTACX_site8424]”, 9.5.
In the case of “ATAGAAGCTGTTGACGAAGAAAAAAAAAAAAAAAAA [CACACA_negctrl_site110]” it was 9.05.
In the case of “AGAAAAAAAAAAAAAAAACACACGGTACATCCAAAG [CACACA_site124]”, the “gcPBM binding intensity (ln)” value was 9.88.
In the case of “ATCAAATTATAATCATGTACAAATAAAAAAAAAAAA [XGTACX_site313]” it was 9.61; in that of “AAATATCTACAAATATGTACATATTTTTTTTGGCTT [XGTACX_site6301]”, 9.53; in that of “TTTGGTAAGCGTGTCGCATGTAGAACAAGTCTACAT [TGCATGCA_site577]”, 9.48.
The result for “AATAGGTGCCTTTTTTCACACACATGTCAACTAAAT [CACACA_site8846]” reads 9.98.
In the case of “ATGAAATTATTATATAAACACACATTTATTTTATTT [CACACA_site8597]” it was 9.74.
Take “ATTCTTTTTTTTTTCTTATATTCTAATCACCACCTT [XGTACX_negctrl_site179]”: the “gcPBM binding intensity (ln)” value is 9.5.
In the case of “TAAAATTAAATGAAATCATTATTCATTTTTATTTTA [CACACA_negctrl_site1281]”, the “gcPBM binding intensity (ln)” value turned out to be 9.36.
In the case of “CATATAAATAAACACACACACACATATATATATATA [CACACA_site5309]” it was 10.5; in that of “TATATATATATTTTTGGTACAGATATTTTCTTCTCT [XGTACX_site4432]”, 9.71.
In the case of “TTACAACCATAAAATGCATGTAAATGACAAAAAAAA [TGCATGCA_site944]” it was 9.73; in that of “AATATATATATATATTGTACACACATTTATGCATAT [XGTACX_site6856]”, 10.1; in that of “AGGAACATTTACGCCCCACACACCTACCAACAAAAA [CACACA_site3827]”, 10.2.
With “ATTAAAATGGAGTATTAATATGATATATATATATAT [GTGCAC_negctrl_site509]”, the “gcPBM binding intensity (ln)” value came to 9.81.
In the case of “TAAATACAGACATACACACATACACCCACATATATA [CACACA_site547]” it was 10.3.
The result for “GTTAATTTAATTATATGTACGAAAAAATACGTTATA [XGTACX_site1306]” reads 9.48; that for “TTTTTATTTTTTTATTTCTTATCAAATAAAATATAT [XGTACX_negctrl_site537]”, 9.53; that for “ACATAATATACTATTGTGCACATATATATATATATA [GTGCAC_site9761]”, 9.82.
The result for “ACCCTTCAATTTAATTGTACAAGAAAAAAAAAAAAA [XGTACX_site2927]” reads 9.29.
Turning to “TGCTCAAACTTTACAAATGAACGAATATAAAAAAAG [CACACA_negctrl_site541]”, the “gcPBM binding intensity (ln)” value stood at 9.41.
In the case of “AAATAATCATAAAATAAACACACATATATAAATATA [CACACA_site7981]” it was 9.9.
Turning to “TTACAAAAAGGTAATTTACACACTGCATATAGGAAT [CACACA_site8956]”, the “gcPBM binding intensity (ln)” value worked out at 9.78.
In the case of “TCTTAATATGGTAATACACACTAATATACTTTTGTT [CACACA_site4969]” it was 9.93; in that of “TTAAAAAAAAATGGCACACATTTTAATTTTATGTTT [CACACA_site5035]”, 9.56.
In the case of “TTTATTTAATTCATTGCATGTAATTTTTGTGTCCAC [TGCATGCA_site677]” it was 9.61; in that of “TTTTATGATAATTTTGCACACACTTAGGAAAAATTA [CACACA_site1556]”, 9.65; in that of “TTGTGATTATATAATCGTACATAATTTTAATCACAC [XGTACX_site398]”, 9.58.
The result for “AAAAAAAAAAAAAACACACACATATCTATAATATAT [CACACA_site7481]” reads 10.3; that for “GAATATAAACATATTACACACATCTATATGTACTTT [CACACA_site8582]”, 9.97.
Take “CAAAACAAAGTTGCCGCACACAGATACGCACCCAAG [CACACA_site3455]”: the “gcPBM binding intensity (ln)” value stood at 10.
The result for “ATTTATTTATATAATACACACAAATATCTTAATGAA [CACACA_site6064]” reads 9.58.
The result for “ATTTTTTCTAATGGGTGTACTGAAACGTATTTTATT [XGTACX_site6573]” reads 9.86; that for “TTATTTTTTCTTTTTTTTCTTACCACAAAAATGGAT [CACACA_negctrl_site362]”, 9.36.
As to “ATTTGTAATTATTAAACACACACAAAATATATATAA [CACACA_site8804]”, the “gcPBM binding intensity (ln)” value is 10.1.
Turning to “GTAATATTATAATATACACACATAGAATATAAATAT [CACACA_site6333]”, the “gcPBM binding intensity (ln)” value amounted to 9.88.
The result for “TTCAAGATTTATTATACACACATATTAATATATATA [CACACA_site573]” reads 9.61; that for “AAAATACACCAACACACACACATATATATATATATT [CACACA_site4149]”, 10.3.
In the case of “TTAAAGATATACAAAAGTACTTTTTTTTTCGTCATT [XGTACX_site384]” it was 9.49; in that of “TTCATTAAATAGAACAAAATAATAATATAACAACAA [GTGCAC_negctrl_site116]”, 9.7; in that of “CCATATCTTTTTTGCACACACTACAATAAAACAAAA [CACACA_site4995]”, 9.9.
In the case of “TGAGAGAGAAACGTAGTGCATAAAATCAAATTTAGA [GTGCAC_site9737]” it was 9.71.
For the sequence “GGTTCATATATTAACACACACATACATATTATATAT [CACACA_site2937]”, the “gcPBM binding intensity (ln)” value turned out to be 10.5.
The result for “AATAATCATAGTTCTACACACCTATATTGCAAAAAA [CACACA_site867]” reads 9.69.
In the case of “TTATAAAAAATTTTAGTGCATATATGATTTATATAT [GTGCAC_site9831]” it was 9.52; in that of “TAATATGTATTTACAAGTACTAACAAAATATTAAAA [XGTACX_site3379]”, 9.59; in that of “TACAAAAATAAATGTTGTACTATTATTTATTTCGAT [XGTACX_site1048]”, 9.51.
Regarding “TATATAGCATATTTCACACACACATAATGAATATTA [CACACA_site3546]”, the “gcPBM binding intensity (ln)” value stood at 10.6.
In the case of “ATGATATACGTAAACACACAAATAAAAAAAATTTAT [CACACA_site7544]” it was 9.78.
In the case of “TTTTTTAGTTTTTAGTGTACATAAATAAATAAATAA [XGTACX_site2843]” it was 9.25; in that of “TTAAAAAGAAAGTTCACACACATATAGATGACGGAA [CACACA_site7268]”, 10.1.
The result for “TGATACTTATGATAAATACACACTTGAAATTAAGGA [CACACA_site1152]” reads 9.65.
Regarding “TATATTACAAAAAGTACACACATAAATAAATACATA [CACACA_site975]”, the “gcPBM binding intensity (ln)” value worked out at 9.96.
As to “ATGCTCAAAAGATATGCATGTACAAATATATGAAAT [TGCATGCA_site592]”, the “gcPBM binding intensity (ln)” value was determined as 9.65.
The result for “AAATTAAAATAATAATTCTACAAATTAATTTATCAT [XGTACX_negctrl_site44]” reads 9.51; that for “TATCAAATGTATATATGTACTTATATTTTTTTTATA [XGTACX_site1501]”, 9.54.
The result for “AATATATTTTCCTGCAAACACACATATAAATGTGTA [CACACA_site532]” reads 9.71.
With “ACTTCAAAAATAAACTGTACGTAAAAAAAAAAAAAA [XGTACX_site795]”, the “gcPBM binding intensity (ln)” value worked out at 9.51.
As to “TTTCTTTTTTTTTTTGTATATTAAATCTAAAAAGGA [TGCATGCA_negctrl_site431]”, the “gcPBM binding intensity (ln)” value was found to be 9.29.
